From PubChem BioAssay AID588855 (National Center for Advancing Translational Sciences (NCATS), 2011)
In all, about 410,000 compounds went through this assay and about 5,000 (1.2%) were called active. Inconclusive means that the source gave no clear call. Such entries were picked first, then a sample of the others. The call rests on the fitted dose curve; in most records, active means well fitted inhibition curve with a large enough effect; inconclusive means small, poorly fitted or top-dose-only effect; inactive means no such curve, though single readings can be large or run the other way. A potency beside an inconclusive call is a rough fit, not a confirmed value.

Test: qHTS for Inhibitors of TGF-b; further: nearly all actives have a fitted effect of over 65% in size
Settings: HepG2 CAGA-GFP TGF-b/SMAD3 reporter, GFP fluorescence, 18 h, TGF-beta stimulated, 500 pg/mL final; series mostly up to 46.1 µM
In short: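 Using HEPG2 CAGA-GFP reporter cells at 1000 cells/well, we pinned test compounds, stimulated with recombinant TGF-beta (500 pg/mL final) and measured total well GFP after 18 h.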
Potency means the concentration at half of the fitted maximal effect; tags describe the fitted curve by direction and shape.

| SMILES | Potency |
| --- | --- |
| COc1ccc(CCN2C(=O)c3[nH]nc(-c4ccccc4O)c3C2c2ccc(O)c(OC)c2)cc1 (stereo not given) | inconclusive: 35.5 µM [inhibitor, single point] |
| CS(=O)(=O)c1nc(S(=O)(=O)c2ccc(Cl)cc2)c(NCCN2CCOCC2)s1 | inactive |
| CN(Cc1c(C(=O)N/N=C/c2ccccc2F)nnn1-c1nonc1N)c1ccccc1 | inconclusive: 22.4 µM [inhibitor, single point] |
| N#CC1CCCc2c1[nH]c1ccc([N+](=O)[O-])cc21 (stereo not given) | inactive |
| CCCN(CCC)CC(O)Cn1cc(/C=C/C(=O)c2ccccc2)c2ccccc21 (stereo not given) | inconclusive: 35.5 µM [inhibitor, single point] |
| O=C(NC1CCCCC1)c1cc(Nc2ccccc2)nc2ccccc12 | inconclusive: 12.6 µM [inhibitor, partial curve, poor fit] |
| COC(=O)c1ccc(NC(=O)CCNS(=O)(=O)c2cccc3nsnc23)cc1 | inconclusive: 3.55 µM [inhibitor, single point] |
| CC1(C)CC(=O)C=C(c2ccc(CO)cc2)C1=O | inactive |
| O=S(=O)(c1ccc(Br)c2nsnc12)N1CCOCC1 | inconclusive: 3.16 µM [inhibitor, single point] |
| CC(C)(C)C1CCC2(CC1)C(C#N)=C(SCC(=O)NC1CCCCC1)NC(=O)C2C#N (stereo not given) | inconclusive: 15.8 µM [inhibitor, single point] |
| COc1ccc(-c2[nH]ncc2[C@@H]2C[C@H]3CN(Cc4ccccc4C)C(=O)[C@]34CCCN24)cc1 | inconclusive: 22.4 µM [inhibitor, single point] |
| CCN=C1NN=C(c2cc(C)n(CCc3ccccc3)c2C)CS1 | inactive |
| Cc1ccc2nc(N3CCN(C(=O)c4ccc(F)cc4)CC3)c(C#N)cc2c1 | active: 10 µM |
| CC1=N/C(=C/c2ccco2)C(=O)O1 | inconclusive: 6.31 µM [inhibitor, single point] |
| O=C(Cc1ccccc1)N/N=C/c1ccc2cccc(O)c2n1 | inconclusive: 7.08 µM [inhibitor, partial curve, poor fit] |
| COc1cccc(/C=C/C(=O)c2ccc3c(c2)OCCO3)c1OC | inconclusive: 35.5 µM [inhibitor, single point] |
| CC1(C(=O)NCc2cccc3ccccc23)CCN1Cc1ccc(-c2ccccc2)o1 (stereo not given) | inconclusive: 35.5 µM [inhibitor, single point] |
| O=[N+]([O-])c1ccc2c(c1)C(N1CCOCC1)/C(=C/COc1ccc3ccccc3c1Br)O2 (stereo not given) | inactive |
| CC(C)c1cc(C(=O)N2CCCC(C(=O)c3ccc4ccccc4c3)C2)on1 (stereo not given) | inactive |
| CCN(CC)C(=O)CSc1nnc2nnc3cc(OC)ccc3n12 | inconclusive: 35.5 µM [inhibitor, single point] |
| CCOC(=O)Cn1c(-c2ccccc2)nc2ccccc2c1=O | inactive |
| Cc1ccc([C@@H]2C[C@H]3[C@@H](CN2S(=O)(=O)c2ccc(Cl)cc2)C(=O)C[C@@H](c2ccc(C)cc2)N3S(=O)(=O)c2ccc(Cl)cc2)cc1 | inactive |
| COc1ccccc1OC(=O)CCN1c2ccccc2Sc2ccccc21 | inactive |
| Cc1cccc(CNC(=O)c2ccc3nc(-c4ccccc4)c(-c4ccccc4)nc3c2)c1 | inactive |

| SMILES | Potency |
| --- | --- |
| CCC(=O)c1ccc(OCCn2cnc3ccccc32)cc1 | inactive |
| COc1ccc(-c2cc(-c3nnc(COC(=O)c4ccncc4)o3)c3ccccc3n2)cc1OC | inactive |
| S=C(NC1CC1)N1CCN(C(=S)NC2CC2)CC1 | inactive |
| COC(=O)c1ccc2c(=O)n(-c3ccccc3)c(SCN3C(=O)c4ccccc4C3=O)nc2c1 | inconclusive: 6.31 µM [inhibitor, single point] |
| O=C(Nc1ccccc1)N1CC=C(c2ccc(F)cc2)CC1 | inactive |
| CC(C)CC(=O)Nc1ccc(S(=O)(=O)NCc2ccco2)cc1 | inconclusive: 3.16 µM [inhibitor, single point] |
| O=C(O)c1ccccc1C(=O)Nn1cnnc1 | inactive |
| COc1ccccc1NC(=O)CSc1ccc(-c2ccc(-n3ccnc3)cc2)nn1 | inactive |
| CC1(C)Cc2c(sc(NC(=O)C(=O)N3CCCCC3)c2C(=O)O)CO1 | inactive |
| CCN(CC)S(=O)(=O)c1ccc(OC)c(NC(=S)Nc2ccc(C)c(C)c2)c1 | inactive |
| CN(C)CCNc1ncnc2c1ncn2[C@H]1CN(Cc2ccc(-c3ccccc3)cc2)C[C@@H](CO)O1 | active: 15.8 µM |
| O=S(=O)(Nc1ccc(Cc2ccncc2)cc1)c1ccc(Cl)s1 | inconclusive: 14.1 µM [inhibitor, single point] |
| CCCn1c(=O)[nH]c(=O)c2c1nc(-c1cc([N+](=O)[O-])ccc1Cl)n2CCOC | inactive |
| O=C(Nc1nnc(-c2ccc3c(c2)OCCO3)o1)c1ccc(Cc2ccccc2)cc1 | inconclusive: 2.51 µM [inhibitor, full curve, poor fit] |
| C[C@@H]1CC[C@H](O)/C=C/C(=O)O[C@H](C)CC[C@H](O)/C=C/C(=O)O1 | inconclusive: 35.5 µM [inhibitor, single point] |
| Cc1ccc2occ(CC(=O)N(Cc3ccc(N(C)C)cc3)C3CCS(=O)(=O)C3)c2c1 (stereo not given) | inactive |
| CCOc1ccc(CNC(=O)CCC(=O)N2CCSc3ccccc32)cc1 | inconclusive: 4.47 µM [inhibitor, full curve] |
| Cc1c(C(=O)OC/C(O)=C(\C#N)c2nc3ccccc3[nH]2)oc2ccccc12 | active: 12.6 µM |
| CSc1cccc(Nc2cc(C(=O)NCCCN(Cc3ccccc3)C(C)C)c3ccccc3n2)c1 | inconclusive: 35.5 µM [inhibitor, single point] |
| Cc1cccc(N2C(=O)C3C4C=CC(C5CC45)C3C2=O)n1 (stereo not given) | inconclusive: 3.55 µM [inhibitor, partial curve, poor fit] |
| Cc1ccc(C)c(NC(=O)C(Cc2ccccc2)N2Cc3ccccc3C2=O)c1 (stereo not given) | inconclusive: 10 µM [inhibitor, partial curve, poor fit] |
| Cc1ccc(Oc2ncccc2COC(=O)Nc2ccccc2C)cc1 | inconclusive: 1.58 µM [inhibitor, partial curve] |
| COCc1c(C(=O)N/N=C\c2ccccn2)nnn1-c1nonc1N | inactive |
| COc1ccc(OC)c(S(=O)(=O)NCCCc2ccccc2)c1 | inactive |

| SMILES | Potency |
| --- | --- |
| O=C(CCNC(=O)C1CCN(S(=O)(=O)c2ccc(F)cc2)CC1)NCCc1ccc(Cl)cc1 | inconclusive: 3.98 µM [inhibitor, partial curve, poor fit] |
| COc1cc(C(=O)c2ccccc2)c(OC)cc1C(=O)Nc1ccc(O)cc1 | inactive |
| CC(C)CSC1=NSC2=NC(=O)/C(=C\c3cccs3)C(=N)N12 | inconclusive: 22.4 µM [inhibitor, single point] |
| Nc1nc(SCC(=O)Nc2c(Br)cc([N+](=O)[O-])cc2Br)n[nH]1 | inconclusive: 22.4 µM [inhibitor, single point] |
| CCOC(=O)c1c(C)[nH]c(C(=O)C(C)OC(=O)c2ccc(NC(=O)CC#N)cc2)c1C (stereo not given) | inconclusive: 12.6 µM [inhibitor, single point] |
| CC(Sc1nnc(N)s1)C(=O)NNC(=O)c1cccc(Cl)c1 (stereo not given) | inconclusive: 6.31 µM [inhibitor, single point] |
| OC[C@@H]1CN(Cc2ccc(-c3ccccc3)cc2)C[C@H](n2cnc3c(NCc4ccncc4)ncnc32)O1 | inconclusive: 11.2 µM [inhibitor, partial curve] |
| O=c1c2ccccc2nc(SCc2nc3ccccc3s2)n1CCCO | inconclusive: 20 µM [inhibitor, partial curve, poor fit] |
| Cc1ccc(S(=O)(=O)/C(=C/Cl)NC(=O)c2ccccc2)cc1 | inconclusive: 7.94 µM [inhibitor, partial curve, poor fit] |
| O=C(/C=C\c1ccc2c(c1)OCO2)NC1(C(=O)Nc2ccc3c(c2)OCCO3)CCCCC1 | inconclusive: 35.5 µM [inhibitor, single point] |
| C/C(CC(=O)Nc1ccc(Cl)cc1C(F)(F)F)=N\NC(N)=S | inconclusive: 28.2 µM [inhibitor, single point] |
| Cc1ccc(C)c(NC(=O)N2CCC(N3CCN(Cc4ccc(F)cc4)C(=O)C3=O)CC2)c1 | inactive |
| COc1cc(CN2c3ccc(Br)cc3C(=O)CS2(=O)=O)cc(OC)c1 | active: 11.2 µM |
| CC(=O)NC1=C(N(C)C2CCS(=O)(=O)C2)C(=O)c2ccccc2C1=O (stereo not given) | inconclusive: 35.5 µM [inhibitor, single point] |
| O=C1CC(N2CCN(Cc3ccc(Cl)cc3)CC2)C(=O)N1CCc1ccccc1 (stereo not given) | inconclusive: 35.5 µM [inhibitor, single point] |
| COc1cccc(Nc2nnc(SCC(=O)N3CC(=O)Nc4ccccc43)s2)c1 | inconclusive: 5.62 µM [inhibitor, single point] |
| O=C(NN1C(=O)/C(=C/C=C/c2ccccc2)SC1=S)c1ccncc1 | inactive |
| COc1ccc(CCNC(=O)Nc2ccc3c(c2)OCO3)cc1OC | inactive |
| COc1ccc(NC(=O)c2ccccc2NS(=O)(=O)c2ccc(C)cc2)c([N+](=O)[O-])c1 | inconclusive: 35.5 µM [inhibitor, single point] |
| Cc1ccc(NC(=O)CSc2ccc(C(N)=O)cc2[N+](=O)[O-])cc1 | inactive |
| CC1=Nc2cc(C(=O)NC3CCCC3)ccc2Sc2ccc(Br)cc21 | inconclusive: 11.2 µM [inhibitor, partial curve] |
| Cc1cc2c(cc1S(=O)(=O)N(C)CC(=O)Nc1cccc(C#N)c1)OCC(=O)N2 | inactive |
